The full ranking holds about 33,000 sequences; the median of “E-score (-0.5 to 0.5)” is about -0.032, and the highest 2% start at about 0.36. The list shows a part of the results.
The sequences below were run against T1, Sko1 (UniProt Q02100) (assay: PBM E-score (8-mer binding enrichment) (E-score (-0.5 to 0.5)); higher = stronger / more preferred TF binding; most listed sequences are background and not binding sites). Details: protein concentration: 200 nM; construct: GST-full length.
T1 sequence: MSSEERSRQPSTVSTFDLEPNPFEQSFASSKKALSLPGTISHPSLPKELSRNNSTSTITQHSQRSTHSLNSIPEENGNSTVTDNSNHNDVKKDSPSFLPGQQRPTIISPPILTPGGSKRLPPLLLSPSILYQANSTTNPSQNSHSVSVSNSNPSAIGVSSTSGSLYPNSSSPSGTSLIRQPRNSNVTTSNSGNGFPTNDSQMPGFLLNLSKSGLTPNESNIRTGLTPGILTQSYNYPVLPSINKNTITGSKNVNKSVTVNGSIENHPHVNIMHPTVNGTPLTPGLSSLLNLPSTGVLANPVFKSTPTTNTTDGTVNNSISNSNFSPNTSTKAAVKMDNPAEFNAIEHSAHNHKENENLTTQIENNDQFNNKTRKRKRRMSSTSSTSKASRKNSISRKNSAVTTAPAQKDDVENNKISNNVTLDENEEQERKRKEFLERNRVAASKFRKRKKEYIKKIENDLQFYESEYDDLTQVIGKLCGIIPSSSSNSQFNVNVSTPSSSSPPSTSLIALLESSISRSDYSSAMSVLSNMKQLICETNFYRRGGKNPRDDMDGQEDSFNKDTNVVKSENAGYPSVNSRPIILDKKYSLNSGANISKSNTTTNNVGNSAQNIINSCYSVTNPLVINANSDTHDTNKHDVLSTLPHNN
Method in brief: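 Universal all-10-mer Agilent arrays, double-stranded by primer extension on fresh or once-stripped slides, were probed with about 100-200 nM GST-tagged yeast transcription factors made by PURExpress. Fluorescent anti-GST detected bound protein, and masliner normalised the scans. E-scores from the Universal PBM Analysis Suite were given to each ungapped eight-base word pooled with its reverse complement.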

Sequence | PBM E-score
CGGGTCGA | -0.254
AAAGGGTG | -0.0683
CCTACCGA | -0.168
ACGGATTG | -0.0304
GATGCTGC | -0.237
GCATTGCA | -0.0747
AAGGGCAC | -0.0629
CGCGGCTA | 0.0344
CGGAGTCC | -0.128
ACGCAACC | 0.379
ACTCATAA | 0.132
CTCTAAAG | -0.206
AGCTCATG | 0.0732
CTGACGCC | 0.159
AAAGGTAG | -0.11
CTGCCCCC | -0.332
ACCACCTA | -0.114
ATCCCTAG | -0.156
CACTGAAC | 0.00689
ACGCGGTC | 0.0508
CGCCCCAC | -0.0143
AGGACTCC | -0.228
AGCTTGCC | 0.141
AACGAGCC | -0.11
GCGATGGA | -0.185

Sequence | PBM E-score
AGTATATA | 0.254
CCACTAGA | -0.174
ACGTGGAG | 0.311
AGACTGTC | -0.165
CCGGCTAC | -0.0881
CCCACGAG | -0.254
CTTGCCTC | -0.154
ATGCCCTA | -0.375
CCTCTTCG | -0.147
CCAAATAG | -0.075
CTGAAAAC | 0.0758
CATAAATA | 0.112
CGGTGTAC | -0.0888
GAGGTATC | -0.238
ATACTGAC | 0.181
TCGAACGA | 0.0001
ACCCATCC | -0.0997
AGCACTTC | 0.0331
GAGCAATA | 0.0306
AAGTGGGG | -0.268
CATTAGTA | 0.17
TCGATAGA | 0.0307
TCATCAAA | 0.0321
CACATCTC | -0.0743
TCGTTAAA | 0.00692

Sequence | PBM E-score
ACTCATCA | 0.0512
ACCGTTAT | 0.00038
AGGCACCA | -0.112
AATCGATA | 0.178
CCTCCAAG | -0.279
GAACACCA | -0.0562
ATTAACAA | 0.276
AGAGCCCG | -0.0702
ACGCCTAC | 0.0661
AATAGTTA | 0.0933
GAATGACC | -0.0498
CCTTCCGC | -0.2
GTCTCGTA | 0.0629
GAGGATCC | -0.167
ACACATGC | -0.0403
CTCAAGCA | -0.0662
AATCATGC | -0.0174
ATCACCTA | 0.0925
TAAACAGA | 0.104
CATTCTGC | -0.0569
AAGTGGAG | -0.0639
ATCCGTTC | -0.0953
AATACAAT | 0.168
AACGGTGA | -0.158
CACGACGA | 0.0235

Sequence | PBM E-score
ATGAGATC | 0.103
CAAATTAA | 0.143
CAAAACGA | 0.101
AACCAATG | -0.00752
GCGTATGA | 0.337
AATTATAG | 0.0801
AAGCCAAC | -0.0157
ATCAACAT | 0.285
AGGTAAGA | 0.0248
CTAGCGAG | -0.204
CAGCGTGC | -0.0976
TGCCTCCA | -0.159
ATTTTCAC | 0.0809
CCAGTCCC | -0.24
TTCGTCAA | 0.297
CCCCATGC | -0.112
AAGAACGT | 0.344
CTACTATC | -0.0548
ATCAGTAC | 0.121
ACGGGCAA | -0.0707
CAGACCCG | -0.0876
CAATTCAG | -0.167
GTCTAAAC | 0.0367
CGATCGAC | 0.083
ATTCAATA | 0.278

Sequence | PBM E-score
TAGCATGA | 0.113
TTCATCAA | 0.107
TATTCTAA | 0.15
AGGATAAG | -0.114
CGAATATC | 0.0899
CACCTGAG | -0.177
GCGGCTAA | -0.112
TGGGTGAA | 0.0602
GACCAGGA | -0.197
ACAGGAAT | 0.00126
CGCTCAAG | -0.192
TCCCAACA | -0.0541
CCTCAACA | 0.121
ACCCAGTC | -0.183
CGAAGCAA | 0.086
CAGTTCCA | -0.192
CACACTGC | -0.185
AGTCCTAT | -0.096
CGAACCAA | 0.0938
AAAGTTCG | 0.108
GGACTTAA | -0.119
CCCGCGAG | -0.232
AAAATCAC | 0.124
AAGGTGAA | -0.0608
AGTCAAGA | -0.102

Sequence | PBM E-score
GTAGAAAC | 0.231
ATTTGCTA | 0.129
AAAATTTT | 0.101
AACCGTAG | -0.229
CGAAAAAA | 0.233
CTTACCTC | -0.167
ACGCTGCG | 0.0452
ATCCCAGC | -0.172
CGCTGCAG | -0.14
TCAGAGGA | -0.106
AAGTAGTC | 0.0187
CAAGGCCG | -0.188
GATGTTAC | 0.282
AGCCACTC | -0.253
GGCATAGA | -0.0476
CGTCCCTC | -0.109
CCGTTTCC | -0.2
AAGTGGCT | -0.08
GCAGACTA | -0.155
GGGATGGA | -0.123
TAACGTGA | 0.274
CCGAAAGC | -0.302
CATGTTCG | -0.0625
GCATATCA | 0.104
GCCTTTCC | -0.208

Sequence | PBM E-score
GGAAACCC | -0.159
GCGTTAAA | 0.00152
AAACCAAT | 0.0284
CAGCTAAA | 0.0861
CAACATGA | 0.181
AGCAGTAT | -0.118
AACGTATT | 0.434
GGGGAGAC | -0.304
CTTCACGC | 0.135
CTCCCGAA | -0.2
ATCCACTA | -0.0731
CACAGTGC | -0.182
AACTCAGA | 0.0435
AAAATGCA | -0.182
CCTTTCCG | -0.344
AACGTGAT | 0.333
CCATGGCG | 0.14
CCGATTGA | -0.0362
CCAAAATC | 0.0792
AAATTTTA | 0.145
GCGCCACA | -0.00247
AGACGCCC | -0.334

From the supplement of paper PMC3334620
